# Hit rate of the full screen: of about 310,000 compounds, about 14,000 (4.5%) showed an effect of 50% or more. Effects have a minus sign here. The list shows a part of the results.
# Molecular target: human ether-à-go-go-related gene (hERG) potassium channel (human, UniProt Q12809)
# Assay: primary screen, population patch clamp on CHO cells stably expressing hERG
# 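Further: peak tail current of the secondary pulse compared with the same well before compound.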
# Sequence of human ether-à-go-go-related gene (hERG) potassium channel (Q12809 whole entry, looked up): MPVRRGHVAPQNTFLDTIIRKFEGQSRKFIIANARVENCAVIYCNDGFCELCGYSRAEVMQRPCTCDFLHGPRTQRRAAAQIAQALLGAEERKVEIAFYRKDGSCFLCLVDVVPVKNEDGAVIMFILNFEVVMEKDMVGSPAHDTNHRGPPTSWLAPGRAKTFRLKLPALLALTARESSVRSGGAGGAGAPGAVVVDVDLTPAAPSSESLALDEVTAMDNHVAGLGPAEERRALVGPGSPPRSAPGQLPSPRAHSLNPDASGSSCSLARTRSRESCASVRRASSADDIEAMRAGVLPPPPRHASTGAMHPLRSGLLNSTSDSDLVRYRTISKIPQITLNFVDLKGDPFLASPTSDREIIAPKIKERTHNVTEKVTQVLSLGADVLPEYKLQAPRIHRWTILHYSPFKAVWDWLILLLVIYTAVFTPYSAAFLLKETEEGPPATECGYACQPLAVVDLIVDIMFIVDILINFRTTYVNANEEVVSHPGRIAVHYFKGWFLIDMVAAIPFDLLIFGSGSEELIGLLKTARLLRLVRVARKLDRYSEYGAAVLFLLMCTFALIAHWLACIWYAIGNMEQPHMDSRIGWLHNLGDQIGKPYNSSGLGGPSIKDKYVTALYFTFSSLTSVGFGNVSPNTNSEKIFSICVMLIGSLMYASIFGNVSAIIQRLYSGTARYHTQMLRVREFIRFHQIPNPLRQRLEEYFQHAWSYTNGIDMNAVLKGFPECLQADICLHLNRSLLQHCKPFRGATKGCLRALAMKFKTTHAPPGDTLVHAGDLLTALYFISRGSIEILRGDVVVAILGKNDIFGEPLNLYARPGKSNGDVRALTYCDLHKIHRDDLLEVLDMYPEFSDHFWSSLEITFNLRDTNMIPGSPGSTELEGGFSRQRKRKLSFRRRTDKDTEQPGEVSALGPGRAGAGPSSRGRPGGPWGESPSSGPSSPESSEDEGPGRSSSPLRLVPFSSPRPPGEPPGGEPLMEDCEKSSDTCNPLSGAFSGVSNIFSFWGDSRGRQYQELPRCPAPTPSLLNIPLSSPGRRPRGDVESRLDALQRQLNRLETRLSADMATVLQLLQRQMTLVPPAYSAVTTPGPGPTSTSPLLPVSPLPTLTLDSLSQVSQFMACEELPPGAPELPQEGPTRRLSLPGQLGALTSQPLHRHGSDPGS
row,Compound,"hERG current change (%, negative = inhibition) at 10uM [%]"
1,CC(C)OP(=O)(OC(C)C)C(Nc1ccccc1)c1cccc([N+](=O)[O-])c1 (stereo not shown),11.8
2,N#Cc1cccc(NC(=O)Cn2c3[n+](c4ccc(C(F)(F)F)cc42)CCCCC3)c1.[Cl-],9.05
3,CCOc1ccc(-n2cc(C(=O)Nc3cccc(Cl)c3)c3cc(OC)c(OC)cc3c2=O)cc1,-0.102
4,CCC(=O)Nc1ccc2nc(SCC(=O)N3CCCC3)sc2c1,-13.2
5,COCCOC(=O)C1=C(C)N=C2SCCC(=O)N2C1/C=C/c1ccccc1 (stereo not shown),-15.3
6,Cc1cccc(OCC(=O)N/N=C\c2cn(C)c3ccccc23)c1,7.68
7,CC(C)CNC(=O)CN(c1cccc(Cl)c1)S(C)(=O)=O,10.1
8,COC(=O)c1ccc(NC(=O)N2CCCC(C(=O)c3ccccc3OC)C2)cc1 (stereo not shown),-6.7
9,O=C(Oc1ccc(N(C(=O)c2ccncc2)S(=O)(=O)c2cccs2)cc1)c1ccncc1,3.77
10,O=C1c2cccc(Cl)c2C(=O)c2c1cccc2N1CCCC1,-9.16
11,Cc1cccc(OCC(=O)NNC(=O)C2CCN(c3ncnc4sc(C)c(C)c34)CC2)c1,-48.2
12,O=C(NNC1CC(=O)N(c2ccc(Cl)cc2)C1=O)c1ccccn1 (stereo not shown),8.32
13,CCCCc1c(C)nc2ccccc2c1SCCC(=O)O,14.8
14,COc1ccc(Nc2nc(C)cc(C)c2C#N)c(OC)c1,22.3
15,CCOc1cc(/C=N\NC(=O)C2C(=O)NCC2c2ccccc2)ccc1OC (stereo not shown),10.2
16,Cc1ccccc1NC(=O)Cc1nc(-c2ccc3ccccc3c2)cs1,6.09
17,Cc1ccc2c(c1)CCCN2C(=O)c1cccs1,-7.85
18,Cn1nnnc1SCC(=O)N1c2ccccc2Sc2ccccc21,-3.66
19,COc1ccc(OC)c(CNC(=O)c2ccc(C)c(NC(=O)C3=C(C)OCCS3)c2)c1,-3.96
20,CCOC(=O)c1ccccc1NC(=O)c1c(O)[nH]c(=S)[nH]c1=O,15.6
21,Cc1ccccc1C(=O)Nc1ccc(N2CCOCC2)nc1,-12.1
22,CCC12CN3CC(CC)(CN(C1)C3c1cccnc1)C2=O (stereo not shown),-9.61

row,Compound,"hERG current change (%, negative = inhibition) at 10uM [%]"
1,CC(=O)Nc1ccc(S(=O)(=O)Oc2ccc3c(c2)C(C)=CC(C)(C)N3)cc1,-1.1
2,[2H]C(CCOS(N)(=O)=O)c1ccccc1 (stereo not shown),20.3
3,COc1ccc(/C(C)=N/NC(=O)CNC(=O)c2cccnc2)c(OC)c1,9.54
4,O=C(NCCc1c[nH]c2ccccc12)C1CCN(Cc2ccc(Br)cc2)CC1,-54
5,COCCn1c(=NC(=O)CSCC(=O)NC2CCCCC2)sc2cc(OC)ccc21,-18.5
6,Cn1cc(C(=O)NC2CC2)c2ccccc21,16.6
7,Cc1ccc(/C=C/C(=O)Nc2cccc3ncccc23)o1,0.761
8,CCN(CC)c1ccc(/C=N/NC(=O)c2c(-c3ccccc3)noc2C)cc1,-9.56
9,CC(=O)c1ccc(N2CCN(S(=O)(=O)c3ccc4c(c3)CC(=O)N4C)CC2)cc1,-21.8
10,CC(OC(=O)c1cc(=O)[nH]c2ccccc12)c1ccccc1 (stereo not shown),-7.72
11,O=C(COC(=O)c1c2c(nc3ccccc13)/C(=C/c1cccc([N+](=O)[O-])c1)CCC2)NC1CCS(=O)(=O)C1 (stereo not shown),-12
12,O=C(NCCCc1ccccc1)c1cc([N+](=O)[O-])ccc1Cl,-12.3
13,CCN(CC)C(=O)c1[nH]cnc1C(=O)NCc1ccc(CNC(=O)OC(C)(C)C)cc1,17.1
14,C=CCOc1cccc(NC(=O)c2ccccc2SC)c1,11.3
15,COC(=O)C1=C(O)/C(=C\c2ccc(OCC(=O)Nc3ccccc3OC)cc2)N=C1C,0.751
16,Cc1c(C)n2c(SCC(=O)Nc3cccc4ccccc34)nnc2[nH]c1=O,5.27
17,CN1CCCC(OC(=O)c2ccc(C(C)(C)C)cc2)C1.Cl (stereo not shown),-1.37
18,COc1cccc(CN2CC(C(=O)NCCCCc3ccccn3)CCC2=O)c1 (stereo not shown),-0.118
19,Cc1c(C2C(C#N)=C(N)N(c3ccccc3C#N)C3=C2C(=O)CCC3)cnn1C (stereo not shown),0.578
20,O=C(O)C1C2C=CC(O2)C1C(=O)Nc1ccccc1C(F)(F)F (stereo not shown),-4.22
21,CC1=Nc2cc(C(=O)NCCN3CCOCC3)ccc2Sc2c(C)ccc(C)c21,-14.9

# From PMC4336329 (PLoS ONE, 2015)
